Measurements from PubChem BioAssay (NCATS).
Inconclusive results, whose numbers are uncertain, are shown with a selection of clear calls. No potency is given beside an inconclusive call; the fits are too rough. The source made the active and inactive calls. Calls follow the shape of the dose curve; as a rule, active = well fitted inhibition curve with a large enough effect; inconclusive = small, poorly fitted or top-dose-only effect; inactive = no such curve, though single readings can be large or run the other way.

Assay: Primary fluorescence-based thiol-reactive (MSTI) qHTS assay for identification of artifact compounds. (AID 1845221); also: nearly all actives have a fitted effect of over 65% in size
Details: MSTI thiol-reactivity probe, 1 h; series mostly up to 53.8 µM; activity change, negative = thiol reactive: at the top concentration
Outline: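 Compounds were incubated 1 h at room temperature in the dark with the MSTI probe (4 uM) in PBS pH 7.4, 2% DMSO. Signals were normalized between Acetyl-MSTI and MSTI.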
Potency is read from the fitted curve at half-maximal effect; tags tell the direction and shape of the fitted curve.

| Compound | Potency | activity change, negative = thiol reactive |
| --- | --- | --- |
| O=C(O)C[C@H]1CCC(=O)[C@@H]1C/C=C\CCOC1OC(CO)C(O)C(O)C1O (stereo partly specified) | active: 7.36 µM | – |
| CC1CCC2C(C)(C)C(O)CCC2(C)C12Cc1c(O)cc3c(c1O2)CN=C3N (stereo unspecified) | inconclusive [inhibitor, partial curve, poor fit] | – |
| COc1c(C)c(OCC(O)C(C)(C)O)cc2c1CNC2=O (stereo unspecified) | inconclusive [inhibitor, single point] | – |
| CC[C@@H]1[C@H]2CCCCN3C(=O)C[C@H]([C@@H]4[C@H]1OC(=O)[C@H]4C)[C@@H]23 | inconclusive [inhibitor, partial curve] | – |
| Cc1cc(O[C@@H]2O[C@H](COC(=O)CC(=O)O)[C@@H](O)[C@H](O)[C@H]2O)c(C(C)C)cc1O | active: 5.19 µM | – |
| C=CC(C)(O)CC/C=C(\C)C1CC=C(C)C(=O)O1 (stereo unspecified) | inconclusive [inhibitor, partial curve, poor fit] | – |
| CC(=O)NCCCCn1c2c(c3ccccc31)C(=O)NCC2 | – | inactive: -21.6% |
| NCc1c[nH]c(=S)n1C1CCc2c(F)cc(F)cc2C1 (stereo unspecified) | inconclusive [inhibitor, partial curve] | – |
| Nc1nc(CC(=O)Nc2ccc(CCNCC(O)c3ccccc3)cc2)cs1 (stereo unspecified) | – | inactive: 16.7% |
| Nc1nc2c(nc(Sc3ccc(Cl)cc3)n2[C@@H]2O[C@@H]3COP(=O)(O)O[C@H]3[C@H]2O)c(=O)[nH]1 | – | inactive: 44.7% |
| Oc1ccc(CC2NCCc3cc(O)c(O)cc32)cc1 (stereo unspecified) | inconclusive [inhibitor, partial curve] | – |
